Experimental data: ChEMBL document CHEMBL4888484, “Replenishing the malaria drug discovery pipeline: Screening and hit evaluation of the MMV Hit Generation Library 1 (HGL1) against asexual blood stage Plasmodium falciparum ,using a nano luciferase reporter read-out” (2022)
In all, about 150,000 compounds went through this assay and about 540 (0.36%) showed an effect of 50% or more. The list shows a part of the results.

system: Plasmodium falciparum; assay: Primary screen in NF54 nanoGlo assay, in single point, at 2uM, 72h; a lower Z score goes with more inhibition; type: functional, Erythrocyte; conditions: timepoint 72 hour

Row | SMILES | % Inhibition [%] | Z score
1 | C=CCCc1ccccc1NC(=O)N1CCC2OCC(=O)NC2C1 (stereo unspecified) | -10 | 1.8
2 | CCOC(=O)C1CCN(C(=O)COC(=O)C2CCN(S(=O)(=O)c3ccc(C)c(C)c3)CC2)CC1 | -2 | 0.22
3 | CC(C)NC(=O)N[C@H]1CCN2C(=O)c3cc(-c4ccccc4F)ccc3NC(=O)[C@@H]2C1 | 4 | -0.64
4 | CCn1cncc1Cn1cnc(-c2ccccc2)c1-c1cccc(C)n1 | -16 | 2.1
5 | CN1C(=O)Cc2cc(-c3csc(-c4ccccn4)n3)ccc21 | -3 | 0.27
6 | CCCc1sc(C(=O)N(C)CC(N)=O)cc1CC | -16 | 2
7 | COc1ccc(CCN2C(=O)N[C@@H](CC(=O)Nc3cccc(NC(C)=O)c3)C2=O)cc1 | 18 | -2.31
8 | CC1CN(C(=O)CC2CCCCC2)CCC1NC(=O)OC(C)(C)C (stereo unspecified) | -2 | 0.23
9 | Clc1ccc(-c2cc3nnnn3c3ccccc23)cc1 | 0 | -0.01
10 | CCN1CCn2c(nn(CC(=O)N[C@H]3CCc4ccccc43)c2=O)C1=O | -7 | 0.75
11 | CCC(NC(C)Cn1ncc2ccccc2c1=O)c1cnn(C)c1 (stereo unspecified) | 7 | -0.69
12 | COc1ncccc1CNC(=O)c1cc2c(s1)CCC2 | -15 | 2.7
13 | CC(C)c1ncc(-c2ccc(S(=O)(=O)Cl)cc2)o1 | -2 | 0.29
14 | CCCc1nc(N2CCCN(C(=O)Nc3ccc(C)cc3)CC2)c2c(-c3ccccc3)noc2n1 | 25 | -3.13
15 | CCCCNC(=O)N[C@@H](C)c1cn[nH]c1 | 0 | -0.03
16 | Cc1cc2c(=O)c(C(=O)c3ccncc3)cn(CC(=O)NC3CCCCC3)c2cc1F | -1 | 0.12
17 | CCn1nnc(NCc2ccnn2-c2ccccc2)n1 | -6 | 1.01
18 | N#CCC(=O)N(Cc1ccncc1)C1CC1 | 15 | -1.79
19 | O=C(NCc1ccccc1CN1CCCCCC1)c1cccc[n+]1[O-] | 2 | -0.33
20 | NC(=O)c1coc(CNC(=O)[C@H]2CCCC(F)(F)C2)n1 | 2 | -0.31
21 | Cc1nccc(NC(=O)N[C@@H](C)CCCO)c1Cl | -6 | 0.81
22 | CCCCC(C)C(=O)NC(CO)C1CCCO1 (stereo unspecified) | -6 | 0.74

Row | SMILES | % Inhibition [%] | Z score
23 | CN(C)C(=O)c1cncc(N(C)CC(C)(C)CO)n1 | -14 | 1.42
24 | COc1cc(=O)n(-c2ccccc2)cc1C(=O)N1CCC(n2nccn2)CC1 | -14 | 1.56
25 | CCc1cnc(C)nc1N1CCC(n2nccc2NC(=O)C(C)(C)C)CC1 | -5 | 1.03
26 | C[C@H](NC(=O)c1cc(C(C)(C)C)on1)c1nc[nH]n1 | -11 | 1.75
27 | N#CCN1CCc2cc(C(=O)Nc3ccccc3)ccc21 | 11 | -2.23
28 | COc1cccc2[nH]cc(C(CC(=O)NC3CCS(=O)(=O)C3)c3ccc(Cl)cc3)c12 (stereo unspecified) | -4 | 0.47
29 | COc1ccc(-c2cc(C(F)(F)F)on2)cc1S(=O)(=O)NCc1ccc(Br)cc1 | 0 | 0.01
30 | O=C(NCCc1ccc(F)cc1)[C@H]1NCC12CCOCC2 | -20 | 2.58
31 | O=C(NC1=NN2C(=NC(c3ccccc3)=C[C@H]2c2ccccc2)N1)c1ccc(F)cc1 | -1 | 0.1
32 | CC(OCC(F)(F)F)C(=O)NC(C)c1cccs1 (stereo unspecified) | 9 | -1.2
33 | Cc1ccc2[nH]c3c(c(=O)c2c1)CN(C(=O)C(F)(F)F)CC3 | 13 | -1.64
34 | C[C@@H](C(=O)Nc1ncccn1)N1CC(C)(C)OC(C)(C)C1 | -7 | 1.25
35 | COc1ccc(CN(C(=O)[C@H]2CCOC2)C(C)(C)C)c(OC)c1 | -8 | 1.5
36 | Cc1[nH]c(=O)[nH]c(=O)c1S(=O)(=O)N1CCC(C(=O)NCCN2CCN(c3ccccc3)CC2)CC1 | -13 | 2
37 | O=C(NCCc1ccc(Cl)cc1)c1csc(C(=O)NC2CC2)n1 | -10 | 1.55
38 | N#Cc1cc(C(=O)NS(=O)(=O)N2CCOCC2)ccc1N1CCCC1 | -5 | 0.63
39 | Cc1ccccc1C(=N)Nc1nnn[nH]1 | -7 | 0.76
40 | CCN(c1cccc(Br)c1)S(C)(=O)=O | 1 | -0.13
41 | O=C(NCc1cncc(-c2ccoc2)c1)[C@@H]1CCCO1 | 10 | -1.23
42 | O=C(NCCN1C(=O)COC1=O)c1ccc(F)cc1 | 17 | -2.27
43 | O=C1N(Cc2ccc(F)c(F)c2)CCC[C@@]1(O)CNC1CCC1 | -8 | 1.2
